Laboratory results: ChEMBL document CHEMBL4888484, “Replenishing the malaria drug discovery pipeline: Screening and hit evaluation of the MMV Hit Generation Library 1 (HGL1) against asexual blood stage Plasmodium falciparum ,using a nano luciferase reporter read-out” (2022)
Hit rate of the full screen: of about 150,000 compounds, about 540 (0.36%) showed an effect of 50% or more. Some of the results follow.

Each compound was assayed on Plasmodium falciparum (assay: Primary screen in NF54 nanoGlo assay, in single point, at 2uM, 72h; a lower Z score goes with more inhibition). Conditions: timepoint 72 hour.
Type: functional, Erythrocyte

Compound | % Inhibition | Z score
Cc1ccsc1CN1CC2(C1)CN(C)C(=O)O2 | -14% | 2.73
O=C(Cc1ccccc1)N1CCN2CCS(=O)(=O)N(C3CC3)C(=O)[C@@H]2C1 | -17% | 2.21
O=C(COc1ccc(F)cc1)N1C[C@@H]2CC[C@H]1CN(Cc1cscn1)C2 | -3% | 0.47
C[C@@H](Cc1ccc(Cl)cc1)N(C)CCS(C)(=O)=O | -12% | 1.86
N#Cc1cccnc1NC1CCN2CCCCC12 (configuration not stated) | -11% | 1.74
CCOc1ccccc1C1=CCNCC1 | 2% | -0.25
N#Cc1ccc(N2CCN([C@H]3CCS(=O)(=O)C3)CC2)cn1 | 4% | -0.41
CC(C)c1ncc(CN2C[C@H]3CC[C@@H](C2)N(C)C3=O)cn1 | -5% | 0.91
O=C(Cc1ccc(F)cc1F)N1C2CCC1CC2 | -15% | 1.7
COc1cccc([C@H]2CCN(Cc3cnn(C)c3C3CC3)C[C@@H]2O)c1 | 7% | -1
O=C1Nc2ccccc2O[C@H]2C[C@@H]1N(Cc1cccnc1)C2 | -3% | 0.42
CCN(CC)C(=O)c1ccc2c(c1)NC(=O)[C@@H]1CCCCN21 | -12% | 1.65
CC(C)CCC(=O)N1CCC2CCN(C)CC21 (configuration not stated) | -3% | 0.4
CC1CCCCC1Nc1ccc2oc(=O)[nH]c2c1 (configuration not stated) | -18% | 2.14
CC(C)NC(=O)N1C[C@@H]2C[C@H](C1)c1c(-c3ccccc3F)ccc(=O)n1C2 | -10% | 1.82
O=C(Cn1c(-c2ccc(Cl)cc2)coc1=O)NCc1cccc(Cl)c1 | -10% | 1.13
CN(C)C(=O)Oc1cccc(OCc2cn3ccccc3[n+]2C)c1 | 6% | -0.7
O=C(c1ccccn1)N1CC[C@@H]2CN(Cc3ccncc3)[C@@H]2C1 | 4% | -0.89
O=C(NC[C@H]1CN2CCN1CC2)c1ncnc2ccsc12 | 1% | -0.19
CC(C)N1C[C@@H](c2ccc3c(c2)OCO3)[C@@H]2[C@H]1C1CCN2CC1 | -1% | 0.24
COc1cc2c(cc1OC)[C@@H](c1c(O)n(C)c(=O)n(C)c1=O)NCC2 | 10% | -1.49
COCCOCCNC1CC(C)(C)CC1C (configuration not stated) | -12% | 1.49

Compound | % Inhibition | Z score
COc1c(C)[nH]cc(CN(C)c2ccnc(-c3nccs3)n2)c1=O | -15% | 2.8
c1cc(CN2CCC3(CCCCCC3)C2)n[nH]1 | 0% | -0.05
CCc1nc2c(c(=O)[nH]1)C[C@H]1CC[C@@H](C2)N1C(=O)c1sc(C)nc1C | 7% | -1.01
N#Cc1ccc(N2CCC[C@@H]2CO)cc1Cl | -15% | 1.58
CN1CC[C@H]2CC[C@@H](C1)N2C(=O)c1cc(=O)[nH]c2c1CCCC2 | -12% | 2.17
CN1C[C@@H]2CCC[C@H]1CN(C(=O)c1cncc(O)c1)C2 | -12% | 1.09
C#C[C@H]1C[N@@]2CC[C@H]1C[C@@H]2CNS(=O)(=O)c1ccc(NC(C)=O)cc1 | 5% | -0.92
N#Cc1ccc(-c2ccc(C(=O)N3CC[C@@](O)(CO)C3)cc2)cc1Cl | -15% | 1.98
Cc1noc(C)c1CC(=O)N1CCC[C@H](N2CCOCC2)C1 | -4% | 0.36
COc1cc(CNC(C)C(c2ccccc2)N(C)C)sn1 (configuration not stated) | -5% | 0.74
CC(C)N1C(=O)N=C(O)C2(Cc3ccccc3N3CC(c4ccccc4)CC32)C1=O (configuration not stated) | 2% | -0.22
COc1ccc(-c2n[nH]c3c2C2(C(=O)O)CC(N3)c3ccccc3O2)cc1 (configuration not stated) | 2% | -0.23
COc1ccc(C[C@H]2CCCN2)cc1C | -31% | 3.62
CO[C@H]1C[C@H]2CC[C@@H](C1)N2Cc1ccc2c(c1)OCCO2 | -17% | 2.03
CN1c2ncccc2CN(Cc2cccnc2)CC[C@H]1CO | 13% | -1.52
O=C(C1CCN(c2nccc3c2ccn3Cc2ccccc2)CC1)N1CCC2(CC1)OCCO2 | -9% | 1.51
CC(C)n1cncc1CN(C)CCc1ccccc1 | 2% | -0.28
COc1ccc(Cc2nc(-c3ccc4c(c3)oc(=O)n4C)no2)cc1 | -16% | 1.51
CC1CCc2sc(C(=O)N3CCC4(CC3)OCC(C)O4)cc2C1 (configuration not stated) | 2% | -0.44
Cc1nc(O)c(Cl)c(N2CCC[C@]3(CCCN(C)C3)C2)n1 | -4% | 0.63
COc1ccc(CC(=O)N2CC[C@@]3(C2)C(=O)Nc2ccc(OC)cc23)cc1 | -14% | 1.91
CC1CCC(N2CC3CC(C2)c2cccc(=O)n2C3)CC1 (configuration not stated) | -13% | 1.89

Compound | % Inhibition | Z score
Cc1ccc([C@H]2CN(C(=O)Cc3ccc4c(c3)OCO4)C[C@@H]2N(C)C)cc1 | 0% | -0.01
C[C@H](Oc1cc(Cl)ccc1Cl)C(=O)N1CCC2(CC1)OCCO2 | -9% | 1.52
COCCN1C(=O)N=C(O)C2(Cc3ccccc3N3CCN(c4ccccc4)CC32)C1=O (configuration not stated) | -4% | 0.53
O=C1CCCCCN1[C@@H](O)C(Cl)(Cl)Cl | -6% | 0.72
N#Cc1ccccc1C(=O)N1C[C@@H](c2cccc(O)c2)[C@@H]2[C@H]1C1CCN2CC1 | -12% | 1.88
CCOc1ccc(-n2c(-c3ccccn3)nc3ccccc3c2=O)cc1 | -4% | 0.44
Cc1oc(-c2ccccc2)nc1Cn1c(-c2ccccc2)noc1=O | -6% | 0.75
CC1CN2CCCC2CN1S(=O)(=O)Cc1ccon1 (configuration not stated) | -11% | 1.41
Cn1cc(C(=O)NC2CCCC2)c2cccnc21 | -9% | 0.93
O=C(Cc1ccc(F)cc1F)N1CCN(CCc2cnccn2)CC1 | -8% | 0.95
O=C1NC(=O)C2(Cc3ccccc3N3CCCC32)C(=O)N1c1ccc(Cl)cc1 (configuration not stated) | 15% | -1.84
CN(C)S(=O)(=O)c1ccc(C(=O)N2CCC(=O)CC2)cc1 | -7% | 1.15
COc1ccc(Cc2nc(-c3ccc4c(c3)oc(=O)n4C)no2)c(Cl)c1 | 1% | -0.1
CC1CCN(CC(=O)O)C2CCCCC12 (configuration not stated) | -4% | 0.55
CN1CCN(C(=O)c2cccnc2C2CC2)C[C@@]12CCOC2 | -4% | 0.53
COc1c(F)cc(CN2C[C@H]3c4ccccc4OC[C@@]3(C(=O)O)C2)cc1F | -3% | 0.5
O=C(O)C1CC2CCC1N2Cc1ccc2c(c1)CCC2 (configuration not stated) | 3% | -0.35
O=C(Oc1ccc2ccc(OC(=O)N3CCOCC3)cc2c1)N1CCOCC1 | 1% | -0.25
CN(CC[C@H]1CCCCO1)S(=O)(=O)c1ccc2[nH]c(=O)oc2c1 | -2% | 0.31
FC(F)(F)c1ccc(N2CC[C@H]3CC[C@@H](C2)N3)nc1 | -7% | 1.13
C[C@@H](Cc1ccc(Cl)cc1)NCC1(N(C)C)CCOCC1 | -4% | 0.33
Cc1nc(N2C[C@H](c3ccccc3)[C@@H]3[C@H]2C2CCN3CC2)c2c(C)noc2n1 | 11% | -1.61

Compound | % Inhibition | Z score
Cn1nc(C(=O)N2CCC3(CC2)OCCO3)c2ccccc2c1=O | -14% | 2.25
O=C1CCCN1C(=O)c1ccc(Cl)cc1 | -5% | 0.73
O=C1C[N+]([O-])=C(c2ccccc2)c2cc(Cl)ccc2N1 [DEMOXEPAM] | 24% | -2.73
COc1ccc(CCN[C@@H](C)c2ccncc2)cc1OC | 1% | -0.13
CN(C)[C@@H]1CN(C(=O)Cc2cccc(F)c2)CC[C@@H]1CO | -13% | 2.27
CCc1nsc(N2CCc3nccc(N)c3C2)n1 | 9% | -1.17
COc1ccc(C(C)NC(C)Cc2ccc(C)s2)cc1NC(C)=O (configuration not stated) | 0% | 0.02
Cc1cc(NC(=O)CN2CCCC3CCCCC32)no1 (configuration not stated) | -8% | 1.18
Cc1noc(C)c1CC(C)NC1CCc2ccc(F)cc21 (configuration not stated) | -2% | 0.14
N#CC1CCC(N2CCN3C(=O)NCC3C2)C1 (configuration not stated) | 5% | -0.81
Cc1nsc(N2C3CCC2C(C(=O)OC(C)(C)C)C3)n1 (configuration not stated) | 4% | -0.41
CC(C)(C)N1C(=O)NC(=O)C2(Cc3ccccc3N3CCN(Cc4ccccc4)CC32)C1=O (configuration not stated) | 30% | -3.35
Cc1ccccc1[C@](CCN1CCCCC1)(C(N)=O)c1c(C)cccc1C | -12% | 1.45
Cc1cc(C(C)NC(C)C(C)c2ccccc2C(F)(F)F)no1 (configuration not stated) | -2% | 0.29
O=C(c1ccc(Oc2ccccc2)cc1)[C@H]1CCCNC1 | -14% | 1.99
Cc1nc2nc(CN3CCN4C(=O)OC[C@H]4C3)cc(O)n2n1 | -6% | 1.15
Cc1cn2c(=O)cc(CN3CC[C@H](O)CC34CCC4)nc2s1 | -4% | 0.49
CCc1ccc(NC(=O)CC2CCN(S(=O)(=O)c3ccc4c(c3)oc(=O)n4CC)CC2)cc1 | -8% | 0.73
CC(C)N1CCN(c2oc(C3CC3)nc2C#N)CC1 | -4% | 0.67
COCCOCC(=O)N1C[C@@H]2CC[C@H]1CN(Cc1ccccn1)C2 | 12% | -1.65
